According to paper PMC4207660, “Identification and Characterization of Hundreds of Potent and Selective Inhibitors of Trypanosoma brucei Growth from a Kinase-Targeted Library Screening Campaign” (PLoS Neglected Tropical Diseases, 2014):
Converted amounts (≈) assume the structure as drawn.

Columns and labels:
[1] = tested on: T. brucei brucei parasites (Lister 427 strain); assay: Dose response growth inhibition assay (resazurin, 72 h); format: cell-based; settings: Trypanosoma brucei; T. b. brucei growth inhibition; read-out: Tbb pEC50 (converted)
Experimental: Greiner sterile black clear bottom 384-well assay plates were pre-dispensing with 200 nL of compound in each well, from master plates at 1 mM (100% DMSO) containing selection from the GSK compound collection. Controls of 0% response (control 1, 200 nL of 100%DMSO) and 100% response (control 2, 200 nL of 1 mM pentamidine) were included in each assay plate in columns 6 and 18, respectively. Plates containing 200 nL of 100% DMSO were included randomly in the assay, to assess quality through all process. […] After this period, 10 µL of 200 µM resazurin solution in prewarmed HMI-9 were added to each well, and plates were allowed to incubate 2 hours more prior fluorescence reading in a Wallac EnVision Multilabel Plate Reader (Perkin-Elmer). Raw fluorescent data from the Envision plate reader were uploaded into GSK HTS database (ActivityBase). Activity of each well was normalized as a percentage of inhibition per-plate basis using the following equation: [drawing 1]
For dose-response experiments, serial compound dilutions of selected hits from the primary campaign were plotted against compound concentration. Dose response master plates were prepared by 3-fold dilutions (starting with 10 mM DMSO stock solutions), providing 11 concentrations. From these master plates, 200 nL per well was stamped in final assay plates, including the same controls describe in the primary single shot assay. […]

[2] = CLND kinetic solubility assay; format: physicochemical; settings: phosphate buffered saline, pH 7.4, aqueous buffer, kinetic from dmso stock; Measured; read-out: Aq Sol
Experimental: 5 µL of 10 mM DMSO stock solution was diluted to 100 µL with pH 7.4 phosphate buffered saline, equilibrated for 1 hour at room temperature, filtered through Millipore MultiscreenHTS-PCF filter plates (MSSL BPC). The filtrate was quantified by suitably calibrated flow injection Chemi-Luminescent Nitrogen Detection.

ChromlogD assay = assay: ChromlogD assay
Experimental: The Chromatographic Hydrophobicity Index (CHI)[22] values were measured using reversed phase HPLC column (Luna C18 (2), Phenomenex, UK) with a fast acetonitrile gradient at starting mobile phase of pH = 7.4. CHI values are derived directly from the gradient retention times by using a calibration line obtained for standard compounds. The CHI value approximates to the volume % organic concentration when the compound elutes. […] The average error of the assay is ±3 CHI unit or ±0.25 ChromlogD.

[3] = target: T1, Human Serum Albumin (HSA) (Homo sapiens, UniProt P02768); assay: Protein binding assay (HPLC stationary phase), HSA; format: in vitro ADME; settings: Measured
T1 construct: purchased Chiral Technologies, France
Experimental: Chemically bonded Human Serum Albumin (HSA) and Alpha-1-acidglycoprotein HPLC stationary phases (Chiral Technologies, France) were used for measuring compounds' binding to plasma proteins, applying linear gradient elution up to 30% iso-propanol. The run time was 6 min, including the re-equilibration of the stationary phases with the 50 mM pH7.4 ammonium acetate buffer. The obtained gradient retention times were standardised using a calibration set of mixtures as described in the references. The average standard error of the assay depends on the binding strength and kinetics of the compounds.

Structure (SMILES)	EC50 [1] [nM]	solubility kinetic at 1 h [2] [µM]	PFI (ChromlogD assay)	HSA % binding [3] [%]
COc1cccc(Cc2nnc(-c3ncc4cccnc4c3O)[nH]2)c1 [NEU-0001189]	398	100 (≈ 33.3 µg/mL)	6.64	75.73
NS(=O)(=O)c1ccc(Nc2ncc(-c3ccccc3)o2)cc1 [NEU-0001219]	631	33 (≈ 10.4 µg/mL)	6.27	–
Nc1ncc(-c2cccnc2)c2scc(-c3ccc4cn[nH]c4c3)c12 [NEU-0001220]	–	–	8.64	–
